Reference: the RNAGym collection of RNA variant scans (doi:10.1093/nar/gkz1192)
Read counts are not given, so values of variants with three or more changes are uncertain.

B1: CPEB3 Ribozyme (parent)
chain: UAACAGGGGGCCACAGCAGAAGCGUUCACGUCGCAGCCCCUGUCAGAUUCUGGUGAAUCUGCGAAUUCUGCUGUAUAUCUC

Variants of: B1
Test: self-cleavage, relative activity (ratio to wild type); higher = more cleavage; in vitro, sequencing
Method in brief: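 CPEB3 self-cleaving ribozyme mutant libraries were made by rounds of error-prone PCR, barcoded, and transcribed in vitro with T7 RNA polymerase for 5 hours at 37°C. Cleavage occurred during transcription and a 15 min DNase I step before EDTA stop. RNAs were reverse transcribed with template switching and Illumina-sequenced, with DNA sequencing mapping barcodes to variants. Relative activity is the variant's cleaved/total read fraction divided by wild type's (minimum 5 reads), averaged across three batches.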
With A18G A21G U41C U80A the self-cleavage was 0.57. In the case of A18G A21G U49C C68U, the self-cleavage is reported as 0.09. Variant A18G A21G U51C A57U has a self-cleavage of 0.14. Variant A18G A21G U54C A64U U74C has a self-cleavage of 0.19. For A18G A21G U54C U74C, the self-cleavage was 0.14. In the case of A18G A21G U54G U66C G70C U76A, the self-cleavage is reported as 0.08. A18G A21G U58C U69C C81G showed a self-cleavage of 0.45. A18G A21G U58G A77G showed a self-cleavage of 0.37. Work on A18G A21G U67A U78C yielded a self-cleavage of 0.17. Variant A18G A21G U69C has a self-cleavage of 0.95. In the case of A18G A21G U72C U80C, the self-cleavage is reported as 0.25. A18G A21G U74C U76C showed a self-cleavage of 0.55. With A18G A21G U80C the self-cleavage was 0.54. With A18G A21U A28G A64G C79A the self-cleavage was 0.11. With A18G A21U A45C A56G the self-cleavage was 0.05. Variant A18G A21U A56G U60A U78C has a self-cleavage of 0.12. A18G A21U A56G U78C showed a self-cleavage of 0.19. In the case of A18G A21U C40U U69C U78C, the self-cleavage is reported as 0.22. Work on A18G A21U U26C U80C yielded a self-cleavage of 0.46. For A18G A21U U41A U69C, the self-cleavage was 0.42. With A18G A21U U51G A57G U72A the self-cleavage was 0.06. A18G A21U U58A showed a self-cleavage of 0.07. A18G A28C A35G gave a self-cleavage of 0.42. A18G A28C A35G A47G U48C U74C gave a self-cleavage of 0.1. With A18G A28C A56G the self-cleavage was 0.14. With A18G A28C C29G U67C the self-cleavage was 0.14. Variant A18G A28C C37U U60C U78C has a self-cleavage of 0.11. With A18G A28C G33A U48C A65U the self-cleavage was 0.07. A18G A28C U41A showed a self-cleavage of 0.13. A18G A28C U41C gave a self-cleavage of 0.2. In the case of A18G A28G A35G A45U, the self-cleavage is reported as 0.19. A18G A28G A35G A56G showed a self-cleavage of 0.27. For A18G A28G A35G C39U U41A U78C, the self-cleavage was 0.05. A18G A28G A35U A45U U51A U60C U72A gave a self-cleavage of 0.06. A18G A28G A35U U43A A45U showed a self-cleavage of 0.09. Work on A18G A28G A45G U51C A56G A77G U80C yielded a self-cleavage of 0.33. A18G A28G A45G U72C gave a self-cleavage of 0.79. For A18G A28G A56U, the self-cleavage was 0.18. A18G A28G A64G A77G gave a self-cleavage of 0.14. Variant A18G A28G A64G U74C has a self-cleavage of 0.27. Variant A18G A28G C34U U43C U49C A77U has a self-cleavage of 0.04. A18G A28G C37U U41A gave a self-cleavage of 0.22. For A18G A28G C62U, the self-cleavage was 0.33. A18G A28G G30A showed a self-cleavage of 0.42. With A18G A28G G42U the self-cleavage was 0.23. In the case of A18G A28G G61U, the self-cleavage is reported as 0.14. Variant A18G A28G G63A U80C has a self-cleavage of 0.23. With A18G A28G U31C C34U U49C U67G U74C the self-cleavage was 0.16. For A18G A28G U41G G63C U74C U80C, the self-cleavage was 0.48. Work on A18G A28G U41G U78C yielded a self-cleavage of 0.26. A18G A28G U49A G55C U60C U72G showed a self-cleavage of 0.13. For A18G A28G U49A U58C, the self-cleavage was 0.07. In the case of A18G A28G U60C C62A, the self-cleavage is reported as 0.07. For A18G A28G U67A U72C, the self-cleavage was 0.21. For A18G A28G U72A, the self-cleavage was 0.22. In the case of A18G A28U A35G U41A A45G U69C, the self-cleavage is reported as 0.18. A18G A28U A35U showed a self-cleavage of 0.09. In the case of A18G A28U A45U U48C U51C U72A, the self-cleavage is reported as 0.16. Work on A18G A28U G33C A56C U72A yielded a self-cleavage of 0.11. Variant A18G A28U G33U U41C has a self-cleavage of 0.13. In the case of A18G A28U U41A U51C U69C A77G, the self-cleavage is reported as 0.13. Variant A18G A28U U41C U54C U58A U67C U72A has a self-cleavage of 0.11. A18G A28U U54A A64U U78C showed a self-cleavage of 0.23. A18G A28U U54A U78A gave a self-cleavage of 0.25. For A18G A35C U51G A64U, the self-cleavage was 0.17. In the case of A18G A35G A45G U54C, the self-cleavage is reported as 0.5. Variant A18G A35G A45U has a self-cleavage of 0.21. Variant A18G A35G A45U G70C has a self-cleavage of 0.27. Variant A18G A35G A65U has a self-cleavage of 0.49. A18G A35G C37U U49C A56G A64G gave a self-cleavage of 1.17. In the case of A18G A35G G46U A57G U58A, the self-cleavage is reported as 0.18. In the case of A18G A35G U41A U69C A75U, the self-cleavage is reported as 0.47. Variant A18G A35G U41C A45U A56G U72C U80C has a self-cleavage of 0.26. In the case of A18G A35G U41G A65G U69C, the self-cleavage is reported as 0.31. With A18G A35G U48A C59A U67C the self-cleavage was 0.1. A18G A35G U48A U58C U66C gave a self-cleavage of 0.06. With A18G A35G U48C the self-cleavage was 0.67. Variant A18G A35G U49C has a self-cleavage of 0.29. With A18G A35G U49C A56U U69G the self-cleavage was 0.27. For A18G A35G U51C U54C, the self-cleavage was 1.18. Work on A18G A35G U51G C59A U67C U72C yielded a self-cleavage of 0.13. For A18G A35G U54A U67C A77C U80A, the self-cleavage was 0.34. Work on A18G A35G U54C A56U G63A yielded a self-cleavage of 0.4. A18G A35G U58A A77U showed a self-cleavage of 0.54. Work on A18G A35G U60C U78A yielded a self-cleavage of 0.55. In the case of A18G A35G U67A, the self-cleavage is reported as 0.39. With A18G A35G U69A U72A the self-cleavage was 0.28. Work on A18G A35G U80G yielded a self-cleavage of 1.25. Variant A18G A35U A45C has a self-cleavage of 0.38. A18G A35U A47G A56G U80C showed a self-cleavage of 0.13. For A18G A35U A47G U69C, the self-cleavage was 0.5. Work on A18G A35U A64G U66A yielded a self-cleavage of 0.05. In the case of A18G A35U A64G U67C, the self-cleavage is reported as 0.08. Variant A18G A35U A64G U69C has a self-cleavage of 0.38. A18G A35U C40G showed a self-cleavage of 0.11. Work on A18G A35U G46U U58A yielded a self-cleavage of 0.15. In the case of A18G A35U U43C U60A, the self-cleavage is reported as 0.09. With A18G A35U U48C A64G U69A the self-cleavage was 0.06. In the case of A18G A35U U49C, the self-cleavage is reported as 0.13. In the case of A18G A35U U51A A56U C62U, the self-cleavage is reported as 0.12. With A18G A35U U60A U67A the self-cleavage was 0.12. Work on A18G A35U U76C A77C yielded a self-cleavage of 0.13. In the case of A18G A45C A57G, the self-cleavage is reported as 0.16. With A18G A45C A65G U72A the self-cleavage was 0.14. Work on A18G A45C U49C U67C yielded a self-cleavage of 0.1. For A18G A45C U69A, the self-cleavage was 0.15. Work on A18G A45G A47G yielded a self-cleavage of 0.2. In the case of A18G A45G A57G, the self-cleavage is reported as 0.49. Variant A18G A45G A65G U67A A77G has a self-cleavage of 0.25. Work on A18G A45G A77G yielded a self-cleavage of 0.47. Variant A18G A45G C62G has a self-cleavage of 0.25. In the case of A18G A45G U48C, the self-cleavage is reported as 0.23. A18G A45G U48C U76A gave a self-cleavage of 0.22. With A18G A45G U49G G52U U78A the self-cleavage was 0.17. With A18G A45G U51A A65U U72A A77U U78C the self-cleavage was 0.28. For A18G A45G U51C, the self-cleavage was 0.16. A18G A45G U51G gave a self-cleavage of 0.47. In the case of A18G A45G U58A U69A U80C, the self-cleavage is reported as 0.13. With A18G A45G U58C U60C the self-cleavage was 0.24. Work on A18G A45G U60A U72A U78C yielded a self-cleavage of 0.15. A18G A45G U66C gave a self-cleavage of 0.17. In the case of A18G A45G U72C, the self-cleavage is reported as 0.39. A18G A45U A47G U72C gave a self-cleavage of 0.27. A18G A45U A56G gave a self-cleavage of 0.23. In the case of A18G A45U A57U C62U, the self-cleavage is reported as 0.08. A18G A45U A77G showed a self-cleavage of 0.27. For A18G A45U U48C, the self-cleavage was 0.1. With A18G A45U U51C U58C A64U the self-cleavage was 0.19. Variant A18G A45U U58C U69C has a self-cleavage of 0.11. For A18G A45U U60A U74C, the self-cleavage was 1. With A18G A45U U60C the self-cleavage was 0.22. For A18G A47G A56U A57G, the self-cleavage was 0.21. A18G A47G A64G gave a self-cleavage of 0.37. Work on A18G A47G A64G U69C yielded a self-cleavage of 0.95. Work on A18G A47G A65G yielded a self-cleavage of 0.28. In the case of A18G A47G A75G A77C, the self-cleavage is reported as 0.48. Work on A18G A47G C62U A64G U66C U80A yielded a self-cleavage of 0.17. A18G A47G G70A U72C showed a self-cleavage of 0.17. With A18G A47G U49A the self-cleavage was 0.28. For A18G A47G U51A U72C U78C, the self-cleavage was 0.72. Work on A18G A47G U51C U67C C71U U78C U80C yielded a self-cleavage of 0.23. Work on A18G A47G U60A U72C yielded a self-cleavage of 0.2. A18G A47G U60C U72A gave a self-cleavage of 0.08. Variant A18G A47G U67C U72C has a self-cleavage of 0.11. For A18G A47G U69C, the self-cleavage was 1.2. With A18G A47U C71U the self-cleavage was 0.12. Work on A18G A47U U58C A77U yielded a self-cleavage of 0.13. Work on A18G A47U U74C yielded a self-cleavage of 0.12. Work on A18G A56G A57G A64C U69A yielded a self-cleavage of 0.14. With A18G A56G A57G U67C the self-cleavage was 0.29. For A18G A56G A64G, the self-cleavage was 0.1. Variant A18G A56G A64G U78C has a self-cleavage of 0.37. For A18G A56G C79A, the self-cleavage was 0.62. Work on A18G A56G U58A yielded a self-cleavage of 0.21. A18G A56G U60C U74C showed a self-cleavage of 0.24. A18G A56G U72C showed a self-cleavage of 0.58. A18G A56G U74A U80C gave a self-cleavage of 1.07. With A18G A56U C59A the self-cleavage was 0.12. Variant A18G A56U U58A U78C has a self-cleavage of 0.1. A18G A56U U78C gave a self-cleavage of 0.29. A18G A57G A64U A75U showed a self-cleavage of 0.26. In the case of A18G A57G A77G, the self-cleavage is reported as 0.53. For A18G A57G C62A U66C U69A U72C, the self-cleavage was 0.17. A18G A57G G63C G70U U80A showed a self-cleavage of 0.22. With A18G A57G U58A A65G the self-cleavage was 0.17. Variant A18G A57G U60A has a self-cleavage of 0.39. With A18G A57G U69C the self-cleavage was 1.05.
